In patent publication US12459918B2, “Isoquinolinone derivatives serving as rock protein kinase inhibitors and use thereof” (GUANGZHOU OCUSUN OPHTHALMIC BIOTECHNOLOGY CO., LTD., priority 2019, dated 2025):
Further values from the same series stand in other lists.

Key:
[1] = system: New Zealand rabbits with normal intraocular pressure; assay: Reduction of intraocular pressure by repeated eye-drop administration for 14 days, experiment operation 1; assay type: in vivo
Description: (§1) Experimental example 4. Experiment on reduction of intraocular pressure and ocular toxicity of New Zealand rabbits with normal intraocular pressure by repeated eye-drop administration for 14 days
(§2) The intraocular pressure reduction action and the potential ocular toxicity of compound 63 were explored by 14 days of repeated eye-drop administration in rabbits with normal intraocular pressure.
(§3) Male New Zealand rabbits, aged 97-127 days, weighted 2.6-3.5 kg, purchased from PizhouDongfang Breeding Co. Ltd.
The male New Zealand rabbits were randomly divided into 7 groups, with 6 rabbits per group. Animals were randomly divided according to body weight Animals in 1-7 groups were eye-dropped with solvent/control sample/test sample in both eyes, the volume of the administration was all 50 μL/eye, once per day for 14 consecutive days, and the day of the administration was recorded as Day 1. On Day 1, intraocular pressure of the animals was measured before the administration and in 1, 2, 4, 6, 8 and 10 hours after the administration, respectively; on Days 2-14, intraocular pressure of the animals was measured in 1 hour after daily administration for the group administered with K-115, and intraocular pressure of the animal was measured in 4 hours after daily administration for the other groups.

[2] = system: New Zealand rabbits with normal intraocular pressure; assay: Repeated eye-drop administration for 14 days, experiment operation 2: Day 1 intraocular pressure; assay type: in vivo; conditions: group minus negative control
Description: as §1, §2, §3
42 male New Zealand rabbits were randomly divided into 7 groups, with 6 rabbits per group. Animals were randomly divided according to body weight Animals in 1-7 groups were eye-dropped with normal saline in the left eye and with solvent/control sample/test sample in the right eye respectively by a volume of 50 μL/eye, once per day for 14 consecutive days, and the day of administration was recorded as Day 1. The intraocular pressure of the animals was measured before Day 1 administration and in 1, 2, 4, 6, 8 and 10 hours after Day 1 administration, respectively (Table 8).

Structure (SMILES): Cc1ccc(C(=O)OCn2cc(C)c3c(S(=O)(=O)N4CC[C@H](N)C4)cccc3c2=O)c(C)c1 [Compound 63]
- Mean intraocular pressure of both eyes ([1]; 0.5 mg/mL once per day, Day 8, 4 hours after daily administration): 7.11 mmHg
- Mean intraocular pressure of both eyes ([1]; 0.5 mg/mL once per day, Day 9, 4 hours after daily administration): 6.19 mmHg
- Mean intraocular pressure of both eyes ([1]; 0.5 mg/mL once per day, Day 10, 4 hours after daily administration): 6.75 mmHg
- Mean intraocular pressure of both eyes ([1]; 0.5 mg/mL once per day, Day 11, 4 hours after daily administration): 6.44 mmHg
- Mean intraocular pressure of both eyes ([1]; 0.5 mg/mL once per day, Day 12, 4 hours after daily administration): 6.25 mmHg
- Mean intraocular pressure of both eyes ([1]; 0.5 mg/mL once per day, Day 13, 4 hours after daily administration): 8.08 mmHg
- Mean intraocular pressure of both eyes ([1]; 0.5 mg/mL once per day, Day 14, 4 hours after daily administration): 7.25 mmHg
- Mean intraocular pressure of both eyes ([1]; 1.0 mg/mL once per day, Day 8, 4 hours after daily administration): 7.28 mmHg
- Mean intraocular pressure of both eyes ([1]; 1.0 mg/mL once per day, Day 9, 4 hours after daily administration): 6.94 mmHg
- Mean intraocular pressure of both eyes ([1]; 1.0 mg/mL once per day, Day 10, 4 hours after daily administration): 7.31 mmHg
- Mean intraocular pressure of both eyes ([1]; 1.0 mg/mL once per day, Day 11, 4 hours after daily administration): 7.50 mmHg
- Mean intraocular pressure of both eyes ([1]; 1.0 mg/mL once per day, Day 12, 4 hours after daily administration): 6.89 mmHg
- Mean intraocular pressure of both eyes ([1]; 1.0 mg/mL once per day, Day 13, 4 hours after daily administration): 8.06 mmHg
- Mean intraocular pressure of both eyes ([1]; 1.0 mg/mL once per day, Day 14, 4 hours after daily administration): 7.44 mmHg
- Mean intraocular pressure of both eyes ([1]; 2.0 mg/mL once per day, Day 8, 4 hours after daily administration): 6.78 mmHg
- Mean intraocular pressure of both eyes ([1]; 2.0 mg/mL once per day, Day 9, 4 hours after daily administration): 5.72 mmHg
- Mean intraocular pressure of both eyes ([1]; 2.0 mg/mL once per day, Day 10, 4 hours after daily administration): 5.94 mmHg
- Mean intraocular pressure of both eyes ([1]; 2.0 mg/mL once per day, Day 11, 4 hours after daily administration): 6.03 mmHg
- Mean intraocular pressure of both eyes ([1]; 2.0 mg/mL once per day, Day 12, 4 hours after daily administration): 6.03 mmHg
- Mean intraocular pressure of both eyes ([1]; 2.0 mg/mL once per day, Day 13, 4 hours after daily administration): 7.11 mmHg
- Mean intraocular pressure of both eyes ([1]; 2.0 mg/mL once per day, Day 14, 4 hours after daily administration): 7.06 mmHg
- Mean intraocular pressure of both eyes ([1]; 4.0 mg/mL once per day, Day 8, 4 hours after daily administration): 6.78 mmHg
- Mean intraocular pressure of both eyes ([1]; 4.0 mg/mL once per day, Day 9, 4 hours after daily administration): 5.47 mmHg
- Mean intraocular pressure of both eyes ([1]; 4.0 mg/mL once per day, Day 10, 4 hours after daily administration): 5.08 mmHg
- Mean intraocular pressure of both eyes ([1]; 4.0 mg/mL once per day, Day 11, 4 hours after daily administration): 5.83 mmHg
- Mean intraocular pressure of both eyes ([1]; 4.0 mg/mL once per day, Day 12, 4 hours after daily administration): 5.89 mmHg
- Mean intraocular pressure of both eyes ([1]; 4.0 mg/mL once per day, Day 13, 4 hours after daily administration): 7.03 mmHg
- Mean intraocular pressure of both eyes ([1]; 4.0 mg/mL once per day, Day 14, 4 hours after daily administration): 6.33 mmHg
- Mean intraocular pressure of both eyes ([1]; 8.0 mg/mL once per day, Day 8, 4 hours after daily administration): 5.72 mmHg
- Mean intraocular pressure of both eyes ([1]; 8.0 mg/mL once per day, Day 9, 4 hours after daily administration): 5.19 mmHg
- Mean intraocular pressure of both eyes ([1]; 8.0 mg/mL once per day, Day 10, 4 hours after daily administration): 5.56 mmHg
- Mean intraocular pressure of both eyes ([1]; 8.0 mg/mL once per day, Day 11, 4 hours after daily administration): 5.53 mmHg
- Mean intraocular pressure of both eyes ([1]; 8.0 mg/mL once per day, Day 12, 4 hours after daily administration): 5.56 mmHg
- Mean intraocular pressure of both eyes ([1]; 8.0 mg/mL once per day, Day 13, 4 hours after daily administration): 6.67 mmHg
- Mean intraocular pressure of both eyes ([1]; 8.0 mg/mL once per day, Day 14, 4 hours after daily administration): 6.94 mmHg
- Change of intraocular pressure ([2]; 0.25 mg/mL, 1 hour after administration): −2.67 mmHg
- Change of intraocular pressure ([2]; 0.25 mg/mL, 2 hours after administration): −3.39 mmHg
- Change of intraocular pressure ([2]; 0.25 mg/mL, 4 hours after administration): −3.22 mmHg
- Change of intraocular pressure ([2]; 0.25 mg/mL, 6 hours after administration): −2.72 mmHg
- Change of intraocular pressure ([2]; 0.25 mg/mL, 8 hours after administration): −0.66 mmHg
- Change of intraocular pressure ([2]; 0.25 mg/mL, 10 hours after administration): −1.22 mmHg
- Change of intraocular pressure ([2]; 0.25 mg/mL, before administration): 0.50 mmHg
- Change of intraocular pressure ([2]; 0.5 mg/mL, 1 hour after administration): −3.50 mmHg
- Change of intraocular pressure ([2]; 0.5 mg/mL, 2 hours after administration): −4.05 mmHg
- Change of intraocular pressure ([2]; 0.5 mg/mL, 4 hours after administration): −2.94 mmHg
- Change of intraocular pressure ([2]; 0.5 mg/mL, 6 hours after administration): −1.84 mmHg
- Change of intraocular pressure ([2]; 0.5 mg/mL, 8 hours after administration): −0.50 mmHg
- Change of intraocular pressure ([2]; 0.5 mg/mL, 10 hours after administration): −0.61 mmHg
- Change of intraocular pressure ([2]; 0.5 mg/mL, before administration): −0.11 mmHg
- Change of intraocular pressure ([2]; 1.0 mg/mL, 1 hour after administration): −3.33 mmHg
- Change of intraocular pressure ([2]; 1.0 mg/mL, 2 hours after administration): −4.17 mmHg
- Change of intraocular pressure ([2]; 1.0 mg/mL, 4 hours after administration): −3.22 mmHg
- Change of intraocular pressure ([2]; 1.0 mg/mL, 6 hours after administration): −3.45 mmHg
- Change of intraocular pressure ([2]; 1.0 mg/mL, 8 hours after administration): 0.11 mmHg
- Change of intraocular pressure ([2]; 1.0 mg/mL, 10 hours after administration): −1.28 mmHg
- Change of intraocular pressure ([2]; 1.0 mg/mL, before administration): −0.17 mmHg
- Change of intraocular pressure ([2]; 2.0 mg/mL, 1 hour after administration): −0.78 mmHg
- Change of intraocular pressure ([2]; 2.0 mg/mL, 2 hours after administration): −3.72 mmHg
- Change of intraocular pressure ([2]; 2.0 mg/mL, 4 hours after administration): −3.83 mmHg
- Change of intraocular pressure ([2]; 2.0 mg/mL, 6 hours after administration): −3.67 mmHg
- Change of intraocular pressure ([2]; 2.0 mg/mL, 8 hours after administration): −1.39 mmHg
- Change of intraocular pressure ([2]; 2.0 mg/mL, 10 hours after administration): −2.11 mmHg
- Change of intraocular pressure ([2]; 2.0 mg/mL, before administration): 0.39 mmHg
- Change of intraocular pressure ([2]; 4 mg/mL, 1 hour after administration): −2.28 mmHg
- Change of intraocular pressure ([2]; 4 mg/mL, 2 hours after administration): −3.72 mmHg
- Change of intraocular pressure ([2]; 4 mg/mL, 4 hours after administration): −4.17 mmHg
- Change of intraocular pressure ([2]; 4 mg/mL, 6 hours after administration): −4.17 mmHg
- Change of intraocular pressure ([2]; 4 mg/mL, 8 hours after administration): −2.00 mmHg
- Change of intraocular pressure ([2]; 4 mg/mL, 10 hours after administration): −1.50 mmHg
- Change of intraocular pressure ([2]; 4 mg/mL, before administration): 0.67 mmHg
